Measurements as given in the supplement of paper PMC11417369.
This is one part of the list.

These sequences were tested on PfHDP1 homeodomain (GST-tagged) (assay: gcPBM binding intensity (ln(normalized median fluorescence intensity)); higher = stronger DNA binding).
In short: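 An Agilent 4 × 180k array carrying primer-extended double-stranded 36-bp intergenic genomic probes and negative controls received GST-tagged P. falciparum DNA-binding domains expressed in E. coli, about 25 μg on average, for 1 h. The binding buffer contained 1× PBS, 1% milk, 0.2 mg/ml BSA, 0.5% salmon testes DNA and 0.03% Triton X-100. Binding intensity is the top Masliner-normalised natural-log median intensity across replicate spots of either probe orientation, read after Alexa488 anti-GST antibody staining and a 488 nm scan.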

| Sequence | gcPBM binding intensity (ln) |
| --- | --- |
| ATCAACATTATGGTTAGTACTTAGTGAATTGTTAAT [XGTACX_site4926] | 6.48 |
| TTATACACCTTTCATTGTACATATAATTTATATTCT [XGTACX_site8685] | 7.12 |
| GTGTAATATATTTTTCGTACATATTATATATATATA [XGTACX_site1675] | 8.44 |
| TTTTTATTGAGATACTTATATAATTTTATGAATAAA [XGTACX_negctrl_site311] | 6.01 |
| TTTTTTTGCTCTTTTTATATATATATATATATATAT [GTGCAC_negctrl_site70] | 9.28 |
| TTTGAAAAGTTGAAATGTACACATTTACACATATTT [XGTACX_site1641] | 6.24 |
| CTTATATATTGGGATAGTACTTTTAACTAAATAGAA [XGTACX_site5900] | 6.23 |
| TGTTGTATTTTTACAACACACATTTAATCCATTTAA [CACACA_site1507] | 6.03 |
| ACTTTACGAATTAAGAGTACTTATTTAAGGAACACT [XGTACX_site7919] | 6.47 |
| AAATACATATCATGTAGTACATATATATGTAGGTTA [XGTACX_site5392] | 6.63 |
| AAAACTATTAAATGTAGTACATAATTATTGAAATAA [XGTACX_site8716] | 6.5 |
| ATAATTATTCTTATGGTGCACTGAATATACATGTTG [GTGCAC_site9760] | 9.5 |
| ATAGCACATTTTTAAGCACACGTTTATTATATATAT [CACACA_site6084] | 6.93 |
| CAAAAATATATTTTTTGTACACAAAAAAAAAATAAA [XGTACX_site5229] | 6.37 |
| TATACATGTTATGTACATCTAATCACACGTGCAATA [CACACA_negctrl_site1267] | 9.15 |
| TCTTTTTACACCTCTTACATAAAACAAAATAAGGGG [XGTACX_negctrl_site12] | 7.09 |
| TGTATGTTTGGGTGCACACATAAATATTATATATAG [CACACA_site3397] | 10.2 |
| ATATATATAAAACACACACACACATGGTTTAAAACT [CACACA_site4219] | 6.96 |
| TTGTAAATTTACATTTGTACATAAATATATTAATAT [XGTACX_site3969] | 6.84 |
| AAAAAGGAGAAACACACACACACACCCATATATATA [CACACA_site905] | 6.98 |
| CATGCTACATCTTATTGTACTTATCTAATGTTAGTA [XGTACX_site1863] | 6.75 |
| AGGCAATATTATATATATATATATATATATATATAT [CACACA_negctrl_site826] | 9.3 |
| ATTTTTTTTTTTTTTTTTTATATGCTCTCCATGAGA [CACACA_negctrl_site1225] | 6.36 |

| Sequence | gcPBM binding intensity (ln) |
| --- | --- |
| ATTAATATGAATAAAACACACATATATAATTTGTAA [CACACA_site1929] | 6.13 |
| TAACTTTTATCCTTAATTCATATATAAGATTAAATC [CACACA_negctrl_site669] | 6.29 |
| AAAAAAAAAAAGAAATGTACATGAATATTTTAAATG [XGTACX_site4069] | 6.29 |
| TATATATTCATATGTTGTACATAAATACAAATAAGA [XGTACX_site5602] | 6.67 |
| TGCAGTCTGGAGAAGAGTACACAGTATCTGGTAACA [XGTACX_site2037] | 5.77 |
| TGGCATTAAAATTTAGTGCATATATCTTAGCATGGG | 8.68 |
| TGTGTATATTATATGTGTACATATCAATGTTTATAT [XGTACX_site1885] | 6.64 |
| TAATATATAACGTGCACACACACATCTACGTATGAA [CACACA_site5080] | 9.9 |
| TAATATTAAATAAATAAAATATATAATATATATATA [XGTACX_negctrl_site49] | 8.07 |
| GTATGATGCATAAGAGTGCATAAGGATATTTCTTCA | 9.4 |
| AATTTAAAAAATAACAGTACATAAAATATATACATA [XGTACX_site7917] | 5.91 |
| TATTGTTATTAAAAATGTACATATAAATTTCTTATT [XGTACX_site1409] | 6.21 |
| AAAAATAAAAGGTGTGCACACAAAAATATATATATA [CACACA_site8507] | 10.7 |
| TATTTATTCTCCAACACACACACATATATATATATA [CACACA_site2894] | 9.14 |
| TTATAGGTGCTTCGTAGTACATAAAAATAATATATA [XGTACX_site6979] | 6.29 |
| AAAATGAATTTAAAATGTACTTTTTCTAAAGAGTAA [XGTACX_site2337] | 6.06 |
| TTTATATAATATGAATGTACTTATATATTTATAGAC [XGTACX_site3261] | 6.29 |
| AAGACTCTTTGTCCTTGTACATATATTTTTATGTTT [XGTACX_site3711] | 6.06 |
| AGTTTTATATTTCTGAGTACTTATGAATCTAGCTCG [XGTACX_site4330] | 6.65 |
| TTGTAAAAAATTCATACACACGTCTTATTTTTAAGA [CACACA_site8390] | 6.21 |
| ATTTTTTCTAAAAGTTGTACATTAAAACGTGTTCAC [XGTACX_site4803] | 6.24 |
| TTTTTTTTTTTTTTTACACACATTTTAATAATTTTA [CACACA_site1492] | 6.58 |
